# Results: PubChem BioAssay AID588855 (National Center for Advancing Translational Sciences (NCATS), 2011)
# Hit rate of the full screen: of about 410,000 compounds, about 5,000 (1.2%) were called active. This list was built around the results that the source calls inconclusive (neither active nor inactive); the mix of calls is not that of the screen. Calls follow the shape of the dose curve; as a rule, active = well fitted inhibition curve with a large enough effect; inconclusive = small, poorly fitted or top-dose-only effect; inactive = no such curve, though single readings can be large or run the other way. Potencies beside an inconclusive call are fits to weak or partial responses and may not hold up.
# Experiment: qHTS for Inhibitors of TGF-b; also: nearly all actives have a fitted effect of over 65% in size
# Settings: HepG2 CAGA-GFP TGF-b/SMAD3 reporter, GFP fluorescence, 18 h, TGF-beta stimulated, 500 pg/mL final; series mostly up to 46.1 µM
# Summary of the method: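 Inhibition was scored as loss of TGF-beta-induced (500 pg/mL final, 18 hours, 37 degrees C) GFP in HEPG2 cells carrying a CAGA-GFP reporter, in DMEM with 1% FBS. Well GFP was summed per cell; Activity was normalised to unstimulated and stimulated DMSO wells, then concentration-response fitting.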
# Potency is read from the fitted curve at half-maximal effect; tags tell the direction and shape of the fitted curve.
row,SMILES,Potency
1,O=C(CN1CCN(S(=O)(=O)c2ccc(F)cc2)CC1)Nc1ccccc1F,"inconclusive: 0.891 µM [inhibitor, full curve]"
2,CCC1CCCCN1Cc1c(O)ccc2c(=O)c(-c3ccccc3OC)coc12 (stereo not drawn),inactive
3,NCCCn1cnc2ccccc21,inactive
4,CCN1CCC2(CC1)N=C(c1ccc(F)cc1)C(=S)N2C(=O)c1ccc(C(C)(C)C)cc1,inactive
5,CCN(CCCNC(=O)CN1N=C(c2ccccc2)CCC1=O)c1ccccc1,"inconclusive: 11.2 µM [inhibitor, partial curve, poor fit]"
6,CCOP(=O)(OCC)c1nc(-c2ccccc2Cl)oc1N1CCOCC1,"inconclusive: 5.01 µM [inhibitor, full curve, poor fit]"
7,O=c1c2sc3ccccc3c2n(Cc2ccccc2)c(=O)n1CCc1ccccc1,inactive
8,COc1ccc(C)cc1Nc1ncnc2c1c(-c1ccccc1)cn2-c1ccc(C)cc1,inactive
9,O=C(NCCN1CCN(c2ccccc2)CC1)c1cccn2c(=O)c3cc(Cl)ccc3nc12,inactive
10,CCOc1ccccc1CNCCSc1nnnn1C,"inconclusive: 0.112 µM [inhibitor, full curve, poor fit]"
11,CCOc1cc(-c2ccc(OC(=O)c3ccccc3)c(OC)c2)cc(=O)c2c(C)oc(C)c12,inactive
12,CCOCCn1ccc2c(OCC(=O)Nc3cccc(F)c3)cccc2c1=O,"inconclusive: 35.5 µM [inhibitor, partial curve, poor fit]"
13,COCCCn1c(N)c(-c2nc3ccccc3n2C)c2nc3ccccc3nc21,inactive
14,COc1ccc(CN(C2CCCC2)S(=O)(=O)c2ccc(-n3cnnn3)c(OC)c2)cc1OC,"inconclusive: 5.62 µM [inhibitor, single point]"
15,C=CCNc1nc2ccccc2nc1NS(=O)(=O)c1ccc(Cl)cc1,"inconclusive: 35.5 µM [inhibitor, single point]"
16,COc1ccc(CCN2CC(C(=O)OCC(=O)NC(C)c3cccc(Cl)c3)CC2=O)cc1OC (stereo not drawn),"inconclusive: 25.1 µM [inhibitor, single point]"
17,COc1ccccc1C1=NOC(C)(c2nnc(Cc3ccccc3)o2)C1 (stereo not drawn),"inconclusive: 1.78 µM [inhibitor, partial curve, poor fit]"
18,Cc1ccc(N(Cc2ccccc2)C(=O)Cc2ccc(S(=O)(=O)N3CCOCC3)s2)cc1,"inconclusive: 35.5 µM [inhibitor, single point]"
19,CCOc1ccc2ncc3c(-c4cccc(OC)c4)nn(-c4ccccc4)c3c2c1,"inconclusive: 31.6 µM [inhibitor, single point]"
20,Cc1ccc2occ(CC(=O)Nc3ccc(S(=O)(=O)N4CCC(C)CC4)cc3)c2c1,"inconclusive: 35.5 µM [inhibitor, single point]"
21,O=C(Nc1ccc(S(=O)(=O)N2CCc3ccccc32)cc1)c1ccco1,"inconclusive: 35.5 µM [inhibitor, single point]"
22,COc1ccc(C(c2nnnn2CC2CCCO2)N2CCN(c3cccc(C)c3C)CC2)cc1 (stereo not drawn),inactive

row,SMILES,Potency
1,CCC(C)Sc1ccc([C@H]2N[C@@](Cc3ccccc3)(C(=O)OC)[C@H]3C(=O)N(CC)C(=O)[C@@H]23)cc1 (stereo partly drawn),"inconclusive: 17.8 µM [inhibitor, single point]"
2,CC1CCc2c(C(=O)NCc3ccco3)csc2C1 (stereo not drawn),"inconclusive: 14.1 µM [inhibitor, partial curve, poor fit]"
3,CCOC(=O)c1cc2cc(OC)ccc2nc1C,"inconclusive: 35.5 µM [inhibitor, partial curve, poor fit]"
4,C=C(C)C(=O)Nc1cccnc1Oc1ccc(F)cc1F,"inconclusive: 3.98 µM [inhibitor, single point]"
5,CCCCCCOc1ccc(/C=N/NC(=O)C2CC2)cc1,inactive
6,Cn1c(Oc2ccccc2)c(C=O)c2ccccc21,"inconclusive: 0.631 µM [inhibitor, full curve, poor fit]"
7,CCCCCn1cc2c(c1-c1ccccc1Br)c(=O)n(C)c(=O)n2C,"inconclusive: 0.316 µM [inhibitor, full curve, poor fit]"
8,COc1ccc([C@@H]2[C@@H]3C(=O)N(C(C)(C)C)C(=O)[C@@H]3[C@]3(Cc4ccc(Cl)cc4)C(=O)N(c4ccc(OC)cc4)C(=O)N23)cc1,"inconclusive: 3.55 µM [inhibitor, single point]"
9,CC(C)c1ccc(NC(=O)CCS(=O)(=O)c2ccc3c(c2)CC(=O)N3C)cc1,"inconclusive: 15.8 µM [inhibitor, single point]"
10,CC(C)(C)NCC(O)CON=C1c2ccccc2-c2ccccc21 (stereo not drawn),"inconclusive: 35.5 µM [inhibitor, single point]"
11,COc1ccc(Cl)cc1NC(=O)c1ccccc1C,inactive
12,CCCCn1c(N)c(N(CCC(C)C)C(=O)COC(=O)c2ccc([N+](=O)[O-])s2)c(=O)[nH]c1=O,"inconclusive: 15.8 µM [inhibitor, single point]"
13,COc1ccc(C(NC(=O)CN2C(=O)NC3(CCc4ccccc43)C2=O)c2ccccc2)cc1 (stereo not drawn),"inconclusive: 10 µM [inhibitor, partial curve]"
14,Cc1ccc(-c2c[n+](CC(=O)c3cccs3)c3n2CCC3)cc1,"inconclusive: 35.5 µM [inhibitor, single point]"
15,COc1cccc(Cn2c(CNS(=O)(=O)c3ccc(Cl)s3)nc3cccnc32)c1,"inconclusive: 22.4 µM [inhibitor, single point]"
16,Cc1cccc(C)c1OC(=O)CN1C(=O)c2ccccc2C1=O,inactive
17,CCc1nn2c(=O)c(S(=O)(=O)Nc3ccc(C(C)C)cc3)c(C)nc2s1,inactive
18,CC(=O)C1=C(c2ccccc2)N(C(C)=O)n2c(C)nnc2S1,"inconclusive: 35.5 µM [inhibitor, single point]"
19,Cc1cc(C)cc(N(C(=O)Cc2cccs2)C(C(=O)NC2CCCC2)c2ccc(C)o2)c1 (stereo not drawn),"inconclusive: 6.31 µM [inhibitor, single point]"
20,CCOc1ccc(S(=O)(=O)N2CCCC(C(=O)NCc3ccncc3)C2)cc1Cl (stereo not drawn),inactive
21,Cn1c(=NCC(O)COc2ccccc2)sc2ccccc21 (stereo not drawn),"inconclusive: 14.1 µM [inhibitor, partial curve, poor fit]"
